In the supplement of paper PMC10126150:
Values marked as one replicate rest on one cluster of the flow cell; about a third of the high ones do not repeat.

Test system: ATP
Assay: switch fluorescence ratio, 500 uM ATP over buffer (Cy3 cluster intensity, sum of 5 cycles each) (fold (ratio)); higher = stronger signal-on switching upon ATP binding; sequences stand for … in TCGTCGGCAGCGTCAGATGTGTATAAGAGACAGTTTTTTTTTTTTTTTTTTTTTTTTT…TC
Conditions: aptamer strand: ATP DNA aptamer (quencher-CACCTGGGGGAGTATTGCGGAGGAAGG + anchor), 100 nM annealed; ATP concentration: 500 uM; one replicate
In short: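 Per cluster, summed Cy3 intensity from the target cycles was divided by that from the buffer cycles to give the fluorescence ratio, then averaged per switch-domain sequence. Clusters outside 100-1000 RFU were excluded. The Cy3-labelled switching-strand clusters, on a modified Illumina MiSeq flow-cell, were annealed to 100 nM quencher-labelled ATP aptamer and imaged in selection buffer, then after 15 min with 500 uM ATP at 22 °C, for five cycles with NaOH stripping and re-annealing between them.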
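Note: ATP exposure 15 min at 22 °C before imaging.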

Sequence	switch fluorescence ratio
GTAGCGCACG	1.05
AGAAAATAAT	0.997
GGGCTGGGAC	1.11
GGTACGACTT	1.02
ACCCCAAAGG	1.1
TATTCCCTGT	1.02
TGTATCAGTT	1.03
CATCGGTATC	1.13
CAGGGGCTGC	0.973
GCTGGTCAAA	0.959
CAGGGGGACA	1.01
AACGATATGA	1.04
CTCTAGATAT	1.75
AAGAGGACTA	0.986
GCAAAGATTC	1.02
CAGCAGCCGT	1.03
TTGATTGACG	0.959
TTTTCCCCGG	1.01
CGTATTAAGG	0.917
GAGGTAGGGC	0.921

Sequence	switch fluorescence ratio
ATAGCGGCAC	1.27
CAAGTTAAAA	1.14
GATTGTAGAC	0.996
GCTGAAGTT	0.999
AACAGGCGGA	1
GAAATGCCAT	0.992
GTGTTCAACA	1
CATATCCCGT	0.974
CGGTAATAGG	0.993
ATCCATTTTA	0.989
ATACAGAT	1.02
GATGTCCCGC	1.13
TGTCTGATTG	0.994
TTCCTTCTCC	1.39
TTACTGAGTT	1.01
CTAAAACACA	1.11
AATTACGAGT	1.05
AGGTAAGGCC	1.02
AAAGCGAACG	0.974
